Measured values published in the supplement of paper PMC6609913.
Counter-ions that a name gives are not always drawn. ± gives the standard deviation of the averaged measurements. The full ranking holds about 1,300 compounds; the median of “normalised cell viability” is about 1, and the lowest 2% start at about 0.14. The list shows a part of the results.

Tested on: V-C8 (BRCA2-deficient hamster cells)
Assay: normalised cell viability (fraction of plate median); higher = more viable cells (less toxic)
Conditions: 5 µM
In short: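 Hamster V-C8 cells lacking BRCA2 and V-C8 cells with BRCA2 restored were seeded in 96-well plates. Library drugs (10 mM DMSO stocks) were added 24 h later at 5 μM in 100 μl medium, next to DMSO control wells, for 3 days (screen 1) or 6 days (screen 2). Cell viability was read by resazurin assay, median-plate normalised (modified robust per cent of sample), and triplicate wells were averaged.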

Row | Compound | normalised cell viability (treatment time: 3 days) | normalised cell viability (treatment time: 6 days)
1 | COP(=O)(OC)C(O)C(Cl)(Cl)Cl (configuration not stated) [Trichlorfon] | 0.974 ± 0.054 | 0.949 ± 0.049
2 | C[C@]12C[C@H]3S[C@H]3C[C@@H]1CC[C@@H]1[C@@H]2CC[C@]2(C)[C@@H](O)CC[C@@H]12 [Epitiostanol] | 1.04 ± 0.012 | 1.033 ± 0.01
3 | CCCC(C)C1(CC)C(=O)NC(=O)NC1=O (configuration not stated) [Pentobarbital] | 0.871 ± 0.066 | 1.1 ± 0.026
4 | C[C@]12CCC(=O)C=C1C=C[C@@H]1[C@@H]2CC[C@@]2(C)[C@H]1CC[C@@]2(O)CCC(=O)O [Canrenoic acid potassium salt] | 1.08 ± 0.053 | 1.05 ± 0.036
5 | C(#CCN1CCCC1)CN1CCCC1 [Tremorine dihydrochloride] | 1.09 ± 0.065 | 1.08 ± 0.06
6 | c1ccc2c(c1)Nc1ccccc1S2 [Phenothiazine] | 1.05 ± 0.068 | 1.08 ± 0.071
7 | O=c1c2ccccc2[se]n1-c1ccccc1 [Ebselen] | 1.08 ± 0.067 | 1 ± 0.036
8 | CC(=O)O[C@H]1C[C@@H]2CC[C@@H]3[C@H](CC[C@@]4(C)[C@H]3C[C@H]([N+]3(C)CCCCC3)[C@@H]4OC(C)=O)[C@@]2(C)C[C@@H]1[N+]1(C)CCCCC1 [Pancuronium bromide] | 1 ± 0.058 | 1.08 ± 0.1
9 | CN[C@@H]1[C@@H](O)[C@@H](O[C@@H]2[C@@H](O)[C@H](O[C@H]3O[C@H](CN)CC[C@H]3N)[C@@H](N)C[C@H]2N)OC[C@]1(C)O.CN[C@@H]1[C@@H](O)[C@@H](O[C@@H]2[C@@H](O)[C@H](O[C@H]3O[C@H]([C@@H](C)N)CC[C@H]3N)[C@@H](N)C[C@H]2N)OC[C@]1(C)O.CN[C@@H]1[C@@H](O)[C@@H](O[C@@H]2[C@@H](O)[C@H](O[C@H]3O[C@H]([C@@H](C)NC)CC[C@H]3N)[C@@H](N)C[C@H]2N)OC[C@]1(C)O [Gentamicine sulfate] | 0.961 ± 0.029 | 0.955 ± 0.039
10 | CN1CCC2(C)c3cc(O)ccc3N(C)C12 (single isomer, unassigned; (-)) [(-)-Eseroline fumarate salt] | 0.706 ± 0.026 | 0.716 ± 0.21
11 | CC(NC(C)(C)C)C(=O)c1cccc(Cl)c1 (configuration not stated) [Bupropion hydrochloride] | 0.925 ± 0.056 | 1.01 ± 0.12
12 | CN1[C@@H]2C[C@@H](OC(=O)[C@H](CO)c3ccccc3)C[C@H]1[C@@H]1O[C@@H]12 [Scopolamine hydrochloride] | 0.993 ± 0.013 | 1.09 ± 0.059
13 | C#C[C@]1(O)CC[C@H]2[C@@H]3CCC4=CC(=O)CCC4=C3C=C[C@@]21CC [Gestrinone] | 0.959 ± 0.038 | 0.9106 ± 0.0083
14 | NCC(CC(=O)O)c1ccc(Cl)cc1 (racemic) [Baclofen (R,S)] | 0.931 ± 0.081 | 1.038 ± 0.0059
15 | N[C@@H]1C[C@H]1c1ccccc1 [Tranylcypromine hydrochloride] | 0.988 ± 0.011 | 0.992 ± 0.039
16 | CC(N)C(O)c1ccccc1 (configuration not stated) [Phenylpropanolamine hydrochloride] | 1.05 ± 0.047 | 1.03 ± 0.038
17 | O=C(CCCN1CCC2(CC1)C(=O)NCN2c1ccccc1)c1ccc(F)cc1 [Spiperone] | 1.04 ± 0.048 | 1.04 ± 0.045
18 | C=C1CC[C@@]2(O)[C@H]3Cc4ccc(O)c5c4[C@@]2(CCN3CC2CC2)[C@H]1O5 [Nalmefene hydrochloride] | 1.06 ± 0.035 | 1.03 ± 0.076
19 | O=[N+]([O-])O[C@H]1CO[C@H]2[C@@H]1OC[C@H]2O[N+](=O)[O-] [Isosorbide dinitrate] | 0.926 ± 0.071 | 0.953 ± 0.042
20 | NCC1(CC(=O)O)CCCCC1 [Gabapentin] | 1.027 ± 0.009 | 1.1 ± 0.027
21 | CC(O)(CS(=O)(=O)c1ccc(F)cc1)C(=O)Nc1ccc(C#N)c(C(F)(F)F)c1 (configuration not stated) [Bicalutamide] | 0.986 ± 0.13 | 0.988 ± 0.012

Row | Compound | normalised cell viability (treatment time: 3 days) | normalised cell viability (treatment time: 6 days)
22 | CCOC(=O)c1cncn1[C@H](C)c1ccccc1 [Etomidate] | 0.935 ± 0.061 | 1.07 ± 0.1
23 | Cc1cc(C(C#N)c2ccc(Cl)cc2)c(Cl)cc1NC(=O)c1cc(I)cc(I)c1O (configuration not stated) [Closantel] | 0.943 ± 0.024 | 0.943 ± 0.051
24 | C[C@@H]1C[C@@H]([C@H](O)CC2CC(=O)NC(=O)C2)C(=O)[C@@H](C)C1 [Cycloheximide] | 0.132 ± 0.0063 | 0.142 ± 0.0068
25 | CC[C@@H](CO)NC(=O)[C@@H]1C=C2c3cccc4[nH]cc(c34)C[C@H]2N(C)C1 [Methylergometrine maleate] | 1.03 ± 0.052 | 1.1 ± 0.055
26 | O=c1[nH]oc2c1CCNC2 [THIP Hydrochloride] | 1.01 ± 0.067 | 1.03 ± 0.01
27 | COc1cc2c(c(OC)c1OC)-c1ccc(OC)c(=O)cc1[C@@H](NC(C)=O)CC2 [Colchicine] | 0.167 ± 0.0023 | 0.143 ± 0.011
28 | CC[N+]1(C)CCCC(OC(=O)C(O)(c2ccccc2)c2ccccc2)C1 (configuration not stated) [Pipenzolate bromide] | 1.08 ± 0.13 | 1.02 ± 0.18
29 | c1ccc2c(c1)OCC(C1=NCCN1)O2 (configuration not stated) [Idazoxan hydrochloride] | 0.979 ± 0.029 | 0.917 ± 0.031
30 | CCCCCC[C@H]1C(=O)O[C@H](C)[C@H](NC(=O)c2cccc(NC=O)c2O)C(=O)O[C@@H](C)[C@@H]1OC(=O)CC(C)C [Antimycin A] | 0.152 ± 0.0026 | 0.12 ± 0.011
31 | CC(C)c1cccc(C(C)C)c1O [Propofol] | 1.06 ± 0.024 | 1.09 ± 0.018
32 | C[C@]12CC[C@H](O)C[C@H]1CC[C@@H]1[C@@H]2CC[C@]2(C)[C@@H](C3=CC(=O)OC3)CC[C@]12O [Digitoxigenin] | 1.06 ± 0.044 | 1.1 ± 0.2
33 | Oc1ccc2c3c1O[C@H]1[C@@H](O)CC[C@@]4(O)[C@@H](C2)N(CC2CCC2)CC[C@]314 [Nalbuphine hydrochloride] | 1.1 ± 0.1 | 1.06 ± 0.043
34 | O=C(NCNC(=O)NC1C(=O)NC(=O)N1CO)NC1C(=O)NC(=O)N1CO (configuration not stated) [Imidurea] | 1.06 ± 0.039 | 1.03 ± 0.024
35 | CC(=O)O[C@H]1CC[C@@]2(C)C(=CC[C@@H]3[C@@H]2CC[C@]2(C)C(=O)CC[C@@H]32)C1 [Dehydroisoandosterone 3-acetate] | 1.07 ± 0.021 | 0.995 ± 0.034
36 | CN1C[C@H](CNC(=O)OCc2ccccc2)C[C@@H]2c3cccc4c3c(cn4C)C[C@H]21 [Metergoline] | 0.1447 ± 0.00066 | 0.133 ± 0.017
37 | C[C@]12C/C(=C/O)C(=O)C[C@@H]1CC[C@@H]1[C@@H]2CC[C@@]2(C)[C@H]1CC[C@]2(C)O [Oxymetholone] | 1.122 ± 0.01 | 1.05 ± 0.052
38 | CC(=O)[C@H]1CC[C@H]2[C@@H]3CC[C@H]4C[C@H](O)CC[C@]4(C)[C@H]3C(=O)C[C@]12C [Alfaxalone] | 1.06 ± 0.023 | 0.989 ± 0.053
39 | C=C1C[C@@H]2[C@H](CC[C@]3(C)C(=O)CC[C@@H]23)[C@@]2(C)C=CC(=O)C=C12 [Exemestane] | 1.12 ± 0.14 | 0.939 ± 0.045
40 | C[C@]12COC(=O)C[C@@H]1CC[C@@H]1[C@@H]2CC[C@@]2(C)[C@H]1CC[C@]2(C)O [Oxandrolone] | 1.12 ± 0.073 | 1.08 ± 0.072
41 | O=P1(N(CCCl)CCCl)NCCCO1 (configuration not stated) [Cyclophosphamide] | 1.03 ± 0.035 | 1.1 ± 0.046
42 | CN1C(=O)CCS(=O)(=O)C1c1ccc(Cl)cc1 (configuration not stated) [Chlormezanone] | 1.147 ± 0.0098 | 1.015 ± 0.0056

Row | Compound | normalised cell viability (treatment time: 3 days) | normalised cell viability (treatment time: 6 days)
43 | C=CCC1(CC(C)C)C(=O)NC(=O)NC1=O [Butalbital] | 1.1 ± 0.031 | 1.079 ± 0.0048
44 | O=C(CCCN1CCC(n2c(=O)[nH]c3ccccc32)CC1)c1ccc(F)cc1 [Benperidol] | 0.93 ± 0.029 | 0.969 ± 0.083
45 | C[C@@H]1CN([C@H]2CC[C@](C#N)(c3ccc(F)cc3)CC2)CC[C@]1(C(=O)O)c1ccccc1 [Levocabastine hydrochloride] | 0.9655 ± 0.0085 | 0.952 ± 0.046
46 | COc1ccc(OC)c(C(O)C(C)N)c1 (configuration not stated) [Methoxamine hydrochloride] | 1.11 ± 0.11 | 1.02 ± 0.063
47 | CCC(=O)O[C@H]1CC[C@H]2[C@@H]3CCC4=CC(=O)CC[C@]4(C)[C@H]3CC[C@]12C [Testosterone propionate] | 0.895 ± 0.057 | 0.975 ± 0.052
48 | CCCC(C)(COC(N)=O)COC(=O)NC(C)C (configuration not stated) [Carisoprodol] | 1.08 ± 0.097 | 1.03 ± 0.12
49 | CCC1(C)CC(=O)NC(=O)C1 [Bemegride] | 0.925 ± 0.075 | 1.06 ± 0.055
50 | C[N+]1(C)CCCC(OC(=O)C(O)(c2ccccc2)c2ccccc2)C1 (configuration not stated) [Mepenzolate bromide] | 0.974 ± 0.054 | 1.08 ± 0.059
51 | OC(c1ccccc1)(c1ccccc1)C1CCNCC1 [Azacyclonol] | 1.1 ± 0.083 | 1.01 ± 0.029
52 | NC(=O)OCCCc1ccccc1 [Phenprobamate] | 1.14 ± 0.049 | 1.08 ± 0.15
53 | O=c1[nH]c2ccccc2n1C1CCN(CCCC(c2ccc(F)cc2)c2ccc(F)cc2)CC1 [Pimozide] | 0.262 ± 0.033 | 0.391 ± 0.032
54 | C#CCN(C)[C@H](C)Cc1ccccc1 [Selegiline hydrochloride] | 0.993 ± 0.052 | 1.03 ± 0.12
55 | C[C@@H]1O[C@@H](O[C@@H]2C=C3CC[C@@H]4[C@H](CC[C@]5(C)[C@@H](c6ccc(=O)oc6)CC[C@]45O)[C@@]3(C)CC2)[C@H](O)[C@H](O)[C@H]1O [Proscillaridin A] | 0.945 ± 0.013 | 0.908 ± 0.11
56 | C[C@]12CC[C@@H](O)C[C@H]1CC[C@@H]1[C@@H]2CC[C@]2(C)C(=O)CC[C@@H]12 [3-alpha-Hydroxy-5-beta-androstan-17-one] | 1.01 ± 0.023 | 0.99 ± 0.092
57 | NCCCNCCSP(=O)(O)O [Amifostine] | 1.05 ± 0.037 | 1.04 ± 0.036
58 | CC1OC(OC2/C=C/C=C/C=C/C=C/CC/C=C/C=C/[C@H](C)[C@@H](O)[C@@H](C)[C@H](C)OC(=O)CC(O)CC(O)CC(O)CCC(O)C(O)C[C@]3(O)CC(O)C(C(=O)O)C(C2)O3)C(O)C(N)C1O (some centres not stated) [Nystatine] | 1.06 ± 0.055 | 0.905 ± 0.084
59 | NCCC(O)C(=O)NC1CC(N)C(OC2OC(CN)C(O)[C@H](O)[C@@H]2N)[C@H](OC2O[C@H](CO)[C@@H](O)[C@@H]2O)[C@@H]1O (some centres not stated) [Butirosin disulfate salt] | 1.04 ± 0.023 | 1.08 ± 0.083
60 | CCC1=C[C@H]2CN3CCc4c([nH]c5ccccc45)[C@](C(=O)OC)(C2)[C@H]13 [Catharanthine] | 1.01 ± 0.051 | 0.929 ± 0.1
61 | CC(C)C[C@H]1C(=O)N2CCC[C@H]2[C@]2(O)O[C@](NC(=O)[C@@H]3C=C4c5cccc6[nH]c(Br)c(c56)C[C@H]4N(C)C3)(C(C)C)C(=O)N12 [Bromocryptine mesylate] | 0.833 ± 0.034 | 0.905 ± 0.037
